# The RNAGym collection of RNA variant scans (doi:10.1073/pnas.2313332121)
# Variants at the background level are over-represented here.
# B1: TPR 5TU (parent)
# chain: GGAUCUUCUCGAUCUAACAAAAAAGACAAAUCUGCCACAAAGCUUGAGAGCAUCUUCGGAUGCAGAGGCGGCAGCCUUCGGUGGCGCGAUAGCGCCAACGUUCUCAACUAUGACACGCAAAACGCGUGCUCCGUUGAAUGGAGUUUAUCAUG
# Variants of: B1
# Experiment: polymerase ribozyme fitness, log enrichment relative to wild type (log ratio); higher = more active; in vitro selection for triplet polymerase activity
# Method in brief: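 Frozen incubation at −7 °C formed the core of a single, triplicate in vitro selection round applied to PCR-built, transcribed mutant libraries of each subunit of a heterodimeric triplet polymerase ribozyme. Extended constructs were gel-excised, captured with streptavidin beads and amplified by RT-PCR, and input and output libraries were Illumina-sequenced with a filter of ≥10 input reads and ≥1 read per output. Fitness is the logarithm of genotype enrichment relative to wild-type enrichment, with inverse-variance-weighted replicate averaging, and the logarithm is base 2.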
row,Variant,polymerase ribozyme fitness (log ratio)
1,U9G U13G A21U A41U U55A C75G C87U,≤ -4.2
2,U9A A20U A28U C79A C87U U139A,≤ -4.2
3,C8G A20C G42U G46U U61A G68A A138U,≤ -4.2
4,U9A A21U U55A C85G G112C U145A,≤ -4.2
5,U9A C36A C72G G92A C129A A137U,≤ -4.2
6,C8U C18G A41C C51G C57U G67C C95A,≤ -4.2
7,U9C A29C,≤ -4.2
8,C10A A16C U44A C76A C87A,≤ -4.2
9,C8U A22C A26C G50C C85A C116U C118A,≤ -4.2
10,U9A C32G A40G U104G C131A,≤ -4.2
11,U9C A12U A41G U44G C51A C75A C87G A113G G141A,≤ -4.2
12,U9A C10U C75A C87A A110G A119C,≤ -4.2
13,C8G G67U A91C A120C,≤ -4.2
14,U9A C27G G50U G126U G136U U144G,≤ -4.2
15,U9C G50C C75G C85G C125A,≤ -4.2
16,C10A A20U G88U G128C U146G,≤ -4.2
17,U9A A12U A20C A29U C93G C95G,≤ -4.2
18,C8G C54U C96G C132G,≤ -4.2
19,C8U A24U A30U U90A G92C,≤ -4.2
20,U9G U139C,≤ -4.2
21,C8G U15A C35U C75G C85U A89U,≤ -4.2

row,Variant,polymerase ribozyme fitness (log ratio)
1,U9A A17U G50C C57U G71C C87A,≤ -4.2
2,U9C A138G,≤ -4.2
3,C10A A20C A28C C54A G83A G86U U104G C105G C129G G140A,≤ -4.2
4,C8U G92U,-3.35
5,U9G A26C C38U G133A A147G,≤ -4.2
6,U9G A19U A66G C69A C75A C85A G86U A97U C116A C149U,≤ -4.2
7,U9A A17G A20C A37C G59A G70C A137U,≤ -4.2
8,U9A A20C A26G A28U G67U U82C U90G G124A U134C U146A,≤ -4.2
9,U9G C87A C95A U109A G133U U146G,≤ -4.2
10,U9A A16G C93G C103U U104A U135A C149G,≤ -4.2
11,C8G A49C A52C G68U G80C C87A A113U U134A,≤ -4.2
12,C8G A20G A21C C32U C132U,≤ -4.2
13,C8G C10G U56G G58A C63G U101G A120U,≤ -4.2
14,U9A A40C G141U,≤ -4.2
15,U9G A60U U77G,≤ -4.2
16,U9G C36A C57U G59A G74A C85G U90A C95A C114U A150U,≤ -4.2
17,C10A A24U G50C G86U U102G C118U G141C,≤ -4.2
18,C8U U13C A49C C51U G67A G81C G141A,≤ -4.2
19,U9A C35A U55C A64C G94U G136A,≤ -4.2
20,U9C G94A U144A,≤ -4.2
21,U9C C54U C87G C93U,≤ -4.2

row,Variant,polymerase ribozyme fitness (log ratio)
1,U9G C32A G62A A73G G88A A110G U135G G143A,≤ -4.2
2,U9A A49C A52U,≤ -4.2
3,U9C A30U G58A C93G,≤ -4.2
4,U9C A16C A29G A30U C93U C96A C105G A121C G143C,≤ -4.2
5,C8A G128A,≤ -4.2
6,U9A A24U A37C G42C G50C G58A C85G A91C U148A,≤ -4.2
7,C8U G25U U55A G62C C85G U144G,≤ -4.2
8,C8U A20U G46C G59U A60C C63U G83U C87U A97U U145A,≤ -4.2
9,U9A A17C U31C U102G C103G U127G,≤ -4.2
10,U9G C14G U31G C32G C76U,≤ -4.2
11,C8G G88U C118G,≤ -4.2
12,C8U U33C A37C A60U C93G,≤ -4.2
13,U9A C63U C69U C76U C93A A113U G136C,≤ -4.2
14,U9G C54G G62A C75A G81C C93G C96A C103G,≤ -4.2
15,C8G G34A G50A U55A C76A C87A C96U C116G,≤ -4.2
16,U9G G42A C57G C79U U82G C85G C105A U144C,≤ -4.2
17,C8U G46C A52C A64C C93G,≤ -4.2
18,C8G A12C A23G A52U C57U C93A C95G A110U,≤ -4.2
19,U9G U15G U45A U53A C79G C87G A115C,≤ -4.2
20,U9A A22G A29C G70C C75G,≤ -4.2
21,C8U A24G A41U U90G C96U,≤ -4.2

row,Variant,polymerase ribozyme fitness (log ratio)
1,U9C A23C A30C G59U C87A C125U,≤ -4.2
2,C8U A19U G62A G86C A113C,≤ -4.2
3,C8U A66C C93U G124A,≤ -4.2
4,C8U A19U G25C C32G A39G A89U A97G A121C C125G,≤ -4.2
5,C8U C38G G92U C95U C99U U104A U145G,≤ -4.2
6,U9C A19U A21G G68C A89U C105U A107G,≤ -4.2
7,C8U G46A U61A,≤ -4.2
8,U9A A24G C54A C87G,≤ -4.2
9,U9C A47C A60G G84C C93A C105G A113U U127C,≤ -4.2
10,C8G A23U C27G A40G A49C C87U U104G U134G G140A,≤ -4.2
11,C8U C63G C87U C129G U139C G143U,≤ -4.2
12,U9A A26U G74A G86U G88U A107U U134C U148C,≤ -4.2
13,C8G A29C U55G A60G C85G A89G G140C,≤ -4.2
14,C8U C10G G11C A49C G81C C93A A107C C118U,≤ -4.2
15,U9A A17U C18G A22U G140C,≤ -4.2
16,C8A G88U G92U C95U A106C U127G,≤ -4.2
17,U9A A17C A20C C54U U55G G58A G67A C116G G143A,≤ -4.2
18,U9A A49C C76A C129U,≤ -4.2
19,U9A A60C G81C C85U A107C U135G,≤ -4.2
20,U9G A24U G25A C32U A37C G42A U55A C87A C125G,≤ -4.2
